Hit rate of the full screen: of about 310,000 compounds, about 2,200 (0.71%) showed an effect of 50% or more. The effect is printed as a negative number. Some of the results follow.
What follows are compounds tested against human ether-à-go-go-related gene (hERG) potassium channel (human, UniProt Q12809) (assay: primary screen, population patch clamp on CHO cells stably expressing hERG).
Sequence of human ether-à-go-go-related gene (hERG) potassium channel (Q12809 whole entry, looked up): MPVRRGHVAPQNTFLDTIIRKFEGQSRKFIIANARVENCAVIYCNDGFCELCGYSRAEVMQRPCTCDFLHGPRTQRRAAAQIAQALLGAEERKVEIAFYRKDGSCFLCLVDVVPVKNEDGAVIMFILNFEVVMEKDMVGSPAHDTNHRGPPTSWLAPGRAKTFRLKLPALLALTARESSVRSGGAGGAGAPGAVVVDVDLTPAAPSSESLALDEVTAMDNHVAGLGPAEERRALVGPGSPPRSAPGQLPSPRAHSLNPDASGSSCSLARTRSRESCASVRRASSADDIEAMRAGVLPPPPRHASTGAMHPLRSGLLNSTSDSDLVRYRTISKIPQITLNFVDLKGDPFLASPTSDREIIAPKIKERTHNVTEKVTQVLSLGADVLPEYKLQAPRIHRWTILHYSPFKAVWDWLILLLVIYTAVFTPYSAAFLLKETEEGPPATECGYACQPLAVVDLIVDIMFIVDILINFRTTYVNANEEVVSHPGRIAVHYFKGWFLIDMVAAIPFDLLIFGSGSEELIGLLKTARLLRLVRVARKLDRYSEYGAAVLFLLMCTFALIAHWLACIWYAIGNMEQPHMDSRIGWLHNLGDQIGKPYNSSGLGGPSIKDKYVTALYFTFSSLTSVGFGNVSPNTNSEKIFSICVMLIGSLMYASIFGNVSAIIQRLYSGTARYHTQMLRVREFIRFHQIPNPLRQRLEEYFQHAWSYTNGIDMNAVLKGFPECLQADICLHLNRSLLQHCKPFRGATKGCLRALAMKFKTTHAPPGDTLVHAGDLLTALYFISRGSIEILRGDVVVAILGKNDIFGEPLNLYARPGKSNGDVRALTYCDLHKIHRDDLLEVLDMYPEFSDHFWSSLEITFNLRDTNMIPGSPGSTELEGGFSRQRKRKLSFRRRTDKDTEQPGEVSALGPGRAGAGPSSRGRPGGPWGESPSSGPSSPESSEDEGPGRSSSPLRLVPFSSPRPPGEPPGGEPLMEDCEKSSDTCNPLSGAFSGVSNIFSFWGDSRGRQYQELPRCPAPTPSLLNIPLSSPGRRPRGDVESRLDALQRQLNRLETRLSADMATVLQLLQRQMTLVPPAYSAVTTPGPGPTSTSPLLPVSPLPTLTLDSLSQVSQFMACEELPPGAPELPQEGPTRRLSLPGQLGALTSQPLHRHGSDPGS

| SMILES | hERG current change (%, negative = inhibition) at 1uM [%] |
| --- | --- |
| Cn1cc(Cl)c(-c2n[nH]c(=S)n2-c2ccc(F)cc2)n1 | 11.4 |
| COc1ccc(C(=O)c2cnc3cc4c(cc3c2C)OCO4)cc1 | 0.557 |
| COc1ccccc1NC(=O)CN(c1ccccc1OC)S(=O)(=O)c1ccccc1 | 8.75 |
| COc1cc(CN2CCNC(=O)C2CC(=O)N(C)CCC2CCOCC2)cc(OC)c1 (stereo not shown) | 15.8 |
| Cc1nc(SCC(=O)c2ccc(F)cc2)c([N+](=O)[O-])[nH]1 | 24.5 |
| COC(=O)c1[nH]c2cc(OC)ccc2c1N | 12.9 |
| O=C(c1cc(-c2ccccc2)nc2ccccc12)N1N=C(C(F)F)CC1(O)C(F)F (stereo not shown) | -3.87 |
| CN1C(=O)CSc2ccc(C(=O)O)cc21 | 2.74 |
| CCN(CC(=O)Nc1ccccc1OC)C(=O)CSCc1ccc(C)cc1 | 12.4 |
| O=[N+]([O-])c1cc(S(=O)(=O)N2CCCCC2)ccc1NCCN1CCOCC1 | 8.79 |
| COc1ccccc1-c1nc(S(=O)(=O)c2ccccc2)c(N2CCCCC2)o1 | 17.3 |
| Cc1nn(CC(=O)NCc2cccs2)c(=O)c2nn(-c3ccccc3)c(C)c12 | 12 |
| CCCCOc1ccc(-c2nnc(-c3ccco3)o2)cc1 | 2.85 |
| CC(=O)OC1(c2ccccc2)CCN(C)C2CCCCC21.Cl (stereo not shown) | 2.93 |
| CC1C/C(=C/c2ccncc2)C(=O)/C(=C/c2ccncc2)C1 (stereo not shown) | -10.4 |
| CC(C)[C@H](Nc1nc(-c2ccccc2)nc2c1oc1ccccc12)C(=O)O.Cl | 14.5 |
| COc1cc2c(=O)n(CC3CCCO3)c(=O)n(CC(=O)Nc3ccc(F)cc3F)c2cc1OC (stereo not shown) | 12.7 |
| O=C(c1ccc(F)cc1)C(C(=O)N1CCCCC1)n1ccccc1=O (stereo not shown) | 12.8 |
| O=C(O)c1cccc(S(=O)(=O)NCCC(c2ccccc2)c2ccccc2)c1 | 7.91 |
| Clc1ccc(Cc2noc(Cc3ccccc3)n2)cc1Cl | 13.8 |
| CCC1=NN2C(=N)/C(=C\c3cccn3-c3ccc(OC)cc3)C(=O)N=C2S1 | 8.05 |
| O=C(CCNS(=O)(=O)c1cccs1)NCc1cccs1 | 22.6 |
| O=C(Nc1ccc(NC(=O)c2ccc([N+](=O)[O-])o2)cc1Cl)c1ccco1 | 14.3 |
| Cc1ccc2cccc(S(=O)(=O)N3CCCc4ccccc43)c2n1 | 6.59 |
| COc1ccc(CNC(=O)[C@H](Cc2c[nH]c3ccccc23)NC(C)=O)cc1OC | 9 |
| Cc1c([N+](=O)[O-])c(C(=O)NC2CCCCC2)nn1C | -10 |
| O=C(Nc1nnc(C2=COCCO2)o1)c1ccc(Cl)cc1 | 15.1 |
| COc1ccc(-c2nnc(NC(=O)c3ccc(S(=O)(=O)N4COCC4(C)C)cc3)o2)cc1 | 9.3 |

| SMILES | hERG current change (%, negative = inhibition) at 1uM [%] |
| --- | --- |
| O=Nc1ccc(NOC(=O)c2ccccc2)cc1 | 8.09 |
| O=C1NC(NS(=O)(=O)c2ccccc2)(C(F)(F)F)C(=O)N1Cc1ccccc1 (stereo not shown) | 13.4 |
| O=C(NCC1CCCO1)c1cc2n(n1)C(C(F)(F)F)CC(c1ccc(Br)cc1)N2 (stereo not shown) | -2.6 |
| O=C(NCc1cccnc1)C1CCN(S(=O)(=O)c2cc(Cl)ccc2Cl)CC1 | 7.78 |
| COc1cc(NC(=S)NCc2ccco2)c(OC)cc1Cl | 4.35 |
| COc1ccc(Cn2cnc([N+](=O)[O-])c2)cc1[N+](=O)[O-] | 9.64 |
| O=C(CCNS(=O)(=O)c1cccc2nsnc12)N1CCc2ccccc21 | 2.51 |
| CC1CN(CC(O)COc2ccc(C(=O)c3ccccc3)cc2)CC(C)O1 (stereo not shown) | -4.77 |
| Cc1csc(CNC(=O)C2CCC(=O)N(CCCc3ccccc3)C2)n1 (stereo not shown) | 4.75 |
| NC(=O)[C@H]1CC2(CC(c3cccc(NC(=O)CC(c4ccccc4)c4ccccc4)c3)=NO2)CN1C(=O)C(c1ccccc1)c1ccccc1 (stereo partly shown) | 11.8 |
| CCn1c(SCC(=O)NCc2ccc(C)cc2)nnc1-c1ccncc1 | 4.07 |
| Cn1c(SCC(=O)Nc2ccc(Cl)cc2)nc(O)cc1=O | 8.26 |
| O=C(NCc1cccs1)C1CCCN(c2nc3ccccc3o2)C1 (stereo not shown) | -30.9 |
| N#Cc1nc(-c2ccco2)oc1N1CCN(Cc2ccccc2)CC1 | 10.5 |
| CCOc1ccc(NS(=O)(=O)c2ccc(NS(=O)(=O)c3ccccc3)cc2)cc1 | 3.84 |
| Cc1cccc(NC(=O)c2ccc3nccnc3c2)n1 | -9.66 |
| Cc1ccnc(NC(=O)c2ccc3c(c2)S(=O)(=O)c2ccccc2C3=O)c1 | -0.34 |
| C=CCSC1=C(C#N)C(c2ccc(OCC)cc2)CC(=O)N1 (stereo not shown) | 6.87 |
| O=C(C[n+]1cccc(C(=O)N/N=C/c2ccc(Br)cc2)c1)c1ccccc1 | -14.6 |
| COc1cc(Nc2ccccc2Cl)c([N+](=O)[O-])nc1[N+](=O)[O-] | 7.85 |
| O=C(Nc1ccc(S(=O)(=O)N2CCCCC2)cc1)C1CCN(C(=O)c2ccc(F)cc2)CC1 | 8.12 |
| CCOC(=O)CSc1nnc(CNC(=O)c2ccc(OC)cc2)n1-c1ccc(OC)cc1 | 1.6 |
| C/C(=N\NC(N)=O)C1CC(Cc2ccccc2)C(=O)O1 (stereo not shown) | 9.05 |
| COc1c(C(=O)Nc2ccc(Cc3ccncc3)cc2)ccc2ccccc12 | 3.83 |
| O=C(CCc1ccc(O)c(O)c1)N/N=C/c1cc2c(cc1[N+](=O)[O-])OCO2 | 15.2 |
| Cc1cccc(NC(=O)Nc2ccc(S(=O)(=O)Nc3onc(C)c3C)cc2)c1 | 12.7 |
| COc1ccccc1N1CCN(C2CCN(S(=O)(=O)c3ccc(C)cc3)CC2)CC1 | -5.86 |
